Laboratory results as given in article PMC12820563, “FoxP3 forms a head-to-head dimer in vivo and stabilizes its multimerization on adjacent microsatellites”.
The list shows a part of the results.

What follows are sequences tested against T1, MBP-FoxP1dN (Mus musculus, UniProt P58462 326-579) (assay: PD-seq (MBP pull-down with sequencing); 20 mM Tris-HCl pH 7.5, 100 mM NaCl, 1.5 mM MgCl2, 0.4 uM protein, 0.1 uM dsDNA library, 30 min, room temperature, amylose pull-down; high values mean tight binding). Conditions: protein: recombinant; tags: His6-MBP; chain copies: 2; dsDNA, one strand shown.
T1 sequence: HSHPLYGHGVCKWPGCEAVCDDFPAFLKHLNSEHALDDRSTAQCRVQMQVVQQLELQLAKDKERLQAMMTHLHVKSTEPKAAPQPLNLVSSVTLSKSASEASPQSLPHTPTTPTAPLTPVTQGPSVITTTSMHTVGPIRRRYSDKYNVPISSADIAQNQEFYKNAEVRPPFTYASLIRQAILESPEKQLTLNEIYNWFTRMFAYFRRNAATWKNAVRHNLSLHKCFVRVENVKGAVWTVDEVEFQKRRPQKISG
How it was run: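 The N-terminus-lacking fragment of mouse FoxP3 or FoxP1 carried a His6-MBP tag and was expressed in E. coli. At 0.4 µM it was incubated with 0.1 µM Klenow-filled degenerate double-stranded DNA library for 30 min at room temperature in Tris pH 7.5 buffer with NaCl and MgCl2, and complexes were caught on amylose resin, washed three times, released with proteinase K, PCR-barcoded and Illumina-sequenced. Binding is reads-per-million enrichment of pull-down over input with replicates pooled.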

Sequence | binding signal
GATGATTGTTCTCCCAGCTGATGAATTGGATGCCTCGAGTAAACAAATTTTCCTAATCTTTCTGTTCAAGCGCCATCTAC | 1.03 RPM ratio (pull-down/input)
GATGATTGTTCTCCCAGCTGATGAATTAGTCCTCTCGAGTAAACAAATTTTCCTAATCTTTCTGTTCAAGCGCCATCTAC | 0.936 RPM ratio (pull-down/input)
GATGATTGTTCTCCCAGCTGATGAATTTTTCCGATCGAGTAAACAAATTTTCCTAATCTTTCTGTTCAAGCGCCATCTAC | 0.946 RPM ratio (pull-down/input)
GATGATTGTTCTCCCAGCTGATGAATTGACACATTCGAGTAAACAAATTTTCCTAATCTTTCTGTTCAAGCGCCATCTAC | 1.45 RPM ratio (pull-down/input)
GATGATTGTTCTCCCAGCTGATGAATTAAGGGATTCGAGTAAACAAATTTTCCTAATCTTTCTGTTCAAGCGCCATCTAC | 0.998 RPM ratio (pull-down/input)
GATGATTGTTCTCCCAGCTGATGAATTCACGTCCTCGAGTAAACAAATTTTCCTAATCTTTCTGTTCAAGCGCCATCTAC | 0.806 RPM ratio (pull-down/input)
GATGATTGTTCTCCCAGCTGATGAATTTAATGCATCGAGTAAACAAATTTTCCTAATCTTTCTGTTCAAGCGCCATCTAC | 1.43 RPM ratio (pull-down/input)
GATGATTGTTCTCCCAGCTGATGAATTTGTTTAATCGAGTAAACAAATTTTCCTAATCTTTCTGTTCAAGCGCCATCTAC | 1.64 RPM ratio (pull-down/input)
GATGATTGTTCTCCCAGCTGATGAATTAAGCCCCTCGAGTAAACAAATTTTCCTAATCTTTCTGTTCAAGCGCCATCTAC | 0.8 RPM ratio (pull-down/input)
GATGATTGTTCTCCCAGCTGATGAATTATCCTAGTCGAGTAAACAAATTTTCCTAATCTTTCTGTTCAAGCGCCATCTAC | 0.969 RPM ratio (pull-down/input)
GATGATTGTTCTCCCAGCTGATGAATTTCATAGATCGAGTAAACAAATTTTCCTAATCTTTCTGTTCAAGCGCCATCTAC | 0.88 RPM ratio (pull-down/input)
GATGATTGTTCTCCCAGCTGATGAATTTTTATAGTCGAGTAAACAAATTTTCCTAATCTTTCTGTTCAAGCGCCATCTAC | 1.05 RPM ratio (pull-down/input)
GATGATTGTTCTCCCAGCTGATGAATTACTGGCTTCGAGTAAACAAATTTTCCTAATCTTTCTGTTCAAGCGCCATCTAC | 0.917 RPM ratio (pull-down/input)
GATGATTGTTCTCCCAGCTGATGAATTTCGCGGCTCGAGTAAACAAATTTTCCTAATCTTTCTGTTCAAGCGCCATCTAC | 0.819 RPM ratio (pull-down/input)
GATGATTGTTCTCCCAGCTGATGAATTGTTGGCATCGAGTAAACAAATTTTCCTAATCTTTCTGTTCAAGCGCCATCTAC | 1.51 RPM ratio (pull-down/input)
GATGATTGTTCTCCCAGCTGATGAATTAGAGAGTTCGAGTAAACAAATTTTCCTAATCTTTCTGTTCAAGCGCCATCTAC | 0.844 RPM ratio (pull-down/input)
GATGATTGTTCTCCCAGCTGATGAATTCAGCCCGTCGAGTAAACAAATTTTCCTAATCTTTCTGTTCAAGCGCCATCTAC | 0.791 RPM ratio (pull-down/input)
GATGATTGTTCTCCCAGCTGATGAATTAGAAGAGTCGAGTAAACAAATTTTCCTAATCTTTCTGTTCAAGCGCCATCTAC | 0.873 RPM ratio (pull-down/input)
GATGATTGTTCTCCCAGCTGATGAATTTAAGACATCGAGTAAACAAATTTTCCTAATCTTTCTGTTCAAGCGCCATCTAC | 1.05 RPM ratio (pull-down/input)
GATGATTGTTCTCCCAGCTGATGAATTGGCCTCATCGAGTAAACAAATTTTCCTAATCTTTCTGTTCAAGCGCCATCTAC | 0.891 RPM ratio (pull-down/input)
GATGATTGTTCTCCCAGCTGATGAATTGAGAGATTCGAGTAAACAAATTTTCCTAATCTTTCTGTTCAAGCGCCATCTAC | 0.823 RPM ratio (pull-down/input)

Sequence | binding signal
GATGATTGTTCTCCCAGCTGATGAATTGTCTAATTCGAGTAAACAAATTTTCCTAATCTTTCTGTTCAAGCGCCATCTAC | 1.21 RPM ratio (pull-down/input)
GATGATTGTTCTCCCAGCTGATGAATTCAGGGAGTCGAGTAAACAAATTTTCCTAATCTTTCTGTTCAAGCGCCATCTAC | 0.833 RPM ratio (pull-down/input)
GATGATTGTTCTCCCAGCTGATGAATTAGTTTCATCGAGTAAACAAATTTTCCTAATCTTTCTGTTCAAGCGCCATCTAC | 0.996 RPM ratio (pull-down/input)
GATGATTGTTCTCCCAGCTGATGAATTGGTACCATCGAGTAAACAAATTTTCCTAATCTTTCTGTTCAAGCGCCATCTAC | 1.08 RPM ratio (pull-down/input)
GATGATTGTTCTCCCAGCTGATGAATTTCATAATTCGAGTAAACAAATTTTCCTAATCTTTCTGTTCAAGCGCCATCTAC | 0.937 RPM ratio (pull-down/input)
GATGATTGTTCTCCCAGCTGATGAATTTATTAAGTCGAGTAAACAAATTTTCCTAATCTTTCTGTTCAAGCGCCATCTAC | 1.25 RPM ratio (pull-down/input)
GATGATTGTTCTCCCAGCTGATGAATTAGTCCACTCGAGTAAACAAATTTTCCTAATCTTTCTGTTCAAGCGCCATCTAC | 0.937 RPM ratio (pull-down/input)
GATGATTGTTCTCCCAGCTGATGAATTTGACCTTTCGAGTAAACAAATTTTCCTAATCTTTCTGTTCAAGCGCCATCTAC | 0.814 RPM ratio (pull-down/input)
GATGATTGTTCTCCCAGCTGATGAATTCGGACGGTCGAGTAAACAAATTTTCCTAATCTTTCTGTTCAAGCGCCATCTAC | 0.816 RPM ratio (pull-down/input)
GATGATTGTTCTCCCAGCTGATGAATTTAGATACTCGAGTAAACAAATTTTCCTAATCTTTCTGTTCAAGCGCCATCTAC | 1.17 RPM ratio (pull-down/input)
GATGATTGTTCTCCCAGCTGATGAATTAGTCAAGTCGAGTAAACAAATTTTCCTAATCTTTCTGTTCAAGCGCCATCTAC | 0.886 RPM ratio (pull-down/input)
GATGATTGTTCTCCCAGCTGATGAATTAAACGTCTCGAGTAAACAAATTTTCCTAATCTTTCTGTTCAAGCGCCATCTAC | 0.828 RPM ratio (pull-down/input)
GATGATTGTTCTCCCAGCTGATGAATTATAATGGTCGAGTAAACAAATTTTCCTAATCTTTCTGTTCAAGCGCCATCTAC | 1.05 RPM ratio (pull-down/input)
GATGATTGTTCTCCCAGCTGATGAATTGAGAAAGTCGAGTAAACAAATTTTCCTAATCTTTCTGTTCAAGCGCCATCTAC | 0.827 RPM ratio (pull-down/input)
GATGATTGTTCTCCCAGCTGATGAATTTCGAATATCGAGTAAACAAATTTTCCTAATCTTTCTGTTCAAGCGCCATCTAC | 0.969 RPM ratio (pull-down/input)
GATGATTGTTCTCCCAGCTGATGAATTTCCATGCTCGAGTAAACAAATTTTCCTAATCTTTCTGTTCAAGCGCCATCTAC | 0.828 RPM ratio (pull-down/input)
GATGATTGTTCTCCCAGCTGATGAATTATGCAAATCGAGTAAACAAATTTTCCTAATCTTTCTGTTCAAGCGCCATCTAC | 1.33 RPM ratio (pull-down/input)
GATGATTGTTCTCCCAGCTGATGAATTAGTCTAATCGAGTAAACAAATTTTCCTAATCTTTCTGTTCAAGCGCCATCTAC | 1.22 RPM ratio (pull-down/input)
GATGATTGTTCTCCCAGCTGATGAATTCCTAACCTCGAGTAAACAAATTTTCCTAATCTTTCTGTTCAAGCGCCATCTAC | 0.838 RPM ratio (pull-down/input)
GATGATTGTTCTCCCAGCTGATGAATTAGGCGCGTCGAGTAAACAAATTTTCCTAATCTTTCTGTTCAAGCGCCATCTAC | 1.03 RPM ratio (pull-down/input)
GATGATTGTTCTCCCAGCTGATGAATTGGCTGAGTCGAGTAAACAAATTTTCCTAATCTTTCTGTTCAAGCGCCATCTAC | 0.812 RPM ratio (pull-down/input)

Sequence | binding signal
GATGATTGTTCTCCCAGCTGATGAATTTTAACACTCGAGTAAACAAATTTTCCTAATCTTTCTGTTCAAGCGCCATCTAC | 1 RPM ratio (pull-down/input)
GATGATTGTTCTCCCAGCTGATGAATTTATCAGTTCGAGTAAACAAATTTTCCTAATCTTTCTGTTCAAGCGCCATCTAC | 1.17 RPM ratio (pull-down/input)
GATGATTGTTCTCCCAGCTGATGAATTATGATTGTCGAGTAAACAAATTTTCCTAATCTTTCTGTTCAAGCGCCATCTAC | 1.45 RPM ratio (pull-down/input)
GATGATTGTTCTCCCAGCTGATGAATTCTAGCAATCGAGTAAACAAATTTTCCTAATCTTTCTGTTCAAGCGCCATCTAC | 1.16 RPM ratio (pull-down/input)
GATGATTGTTCTCCCAGCTGATGAATTCGCGTCATCGAGTAAACAAATTTTCCTAATCTTTCTGTTCAAGCGCCATCTAC | 0.994 RPM ratio (pull-down/input)
GATGATTGTTCTCCCAGCTGATGAATTTGGGTATTCGAGTAAACAAATTTTCCTAATCTTTCTGTTCAAGCGCCATCTAC | 1.02 RPM ratio (pull-down/input)
GATGATTGTTCTCCCAGCTGATGAATTGTACGACTCGAGTAAACAAATTTTCCTAATCTTTCTGTTCAAGCGCCATCTAC | 0.905 RPM ratio (pull-down/input)
GATGATTGTTCTCCCAGCTGATGAATTTATAGAATCGAGTAAACAAATTTTCCTAATCTTTCTGTTCAAGCGCCATCTAC | 1.07 RPM ratio (pull-down/input)
GATGATTGTTCTCCCAGCTGATGAATTTTAAGCGTCGAGTAAACAAATTTTCCTAATCTTTCTGTTCAAGCGCCATCTAC | 0.94 RPM ratio (pull-down/input)
GATGATTGTTCTCCCAGCTGATGAATTAAATCTATCGAGTAAACAAATTTTCCTAATCTTTCTGTTCAAGCGCCATCTAC | 0.922 RPM ratio (pull-down/input)
GATGATTGTTCTCCCAGCTGATGAATTCATTTGCTCGAGTAAACAAATTTTCCTAATCTTTCTGTTCAAGCGCCATCTAC | 1.05 RPM ratio (pull-down/input)
GATGATTGTTCTCCCAGCTGATGAATTAAATACTTCGAGTAAACAAATTTTCCTAATCTTTCTGTTCAAGCGCCATCTAC | 1.08 RPM ratio (pull-down/input)
GATGATTGTTCTCCCAGCTGATGAATTTGAGTTATCGAGTAAACAAATTTTCCTAATCTTTCTGTTCAAGCGCCATCTAC | 1.04 RPM ratio (pull-down/input)
GATGATTGTTCTCCCAGCTGATGAATTAGGACTGTCGAGTAAACAAATTTTCCTAATCTTTCTGTTCAAGCGCCATCTAC | 0.849 RPM ratio (pull-down/input)
GATGATTGTTCTCCCAGCTGATGAATTCAGTAGATCGAGTAAACAAATTTTCCTAATCTTTCTGTTCAAGCGCCATCTAC | 0.911 RPM ratio (pull-down/input)
GATGATTGTTCTCCCAGCTGATGAATTGGACCGGTCGAGTAAACAAATTTTCCTAATCTTTCTGTTCAAGCGCCATCTAC | 0.748 RPM ratio (pull-down/input)
GATGATTGTTCTCCCAGCTGATGAATTATAACTCTCGAGTAAACAAATTTTCCTAATCTTTCTGTTCAAGCGCCATCTAC | 1.03 RPM ratio (pull-down/input)
GATGATTGTTCTCCCAGCTGATGAATTTCTTCGGTCGAGTAAACAAATTTTCCTAATCTTTCTGTTCAAGCGCCATCTAC | 0.814 RPM ratio (pull-down/input)
GATGATTGTTCTCCCAGCTGATGAATTTAGTAGGTCGAGTAAACAAATTTTCCTAATCTTTCTGTTCAAGCGCCATCTAC | 0.959 RPM ratio (pull-down/input)
GATGATTGTTCTCCCAGCTGATGAATTCTCTACGTCGAGTAAACAAATTTTCCTAATCTTTCTGTTCAAGCGCCATCTAC | 0.829 RPM ratio (pull-down/input)
GATGATTGTTCTCCCAGCTGATGAATTGGTTAGTTCGAGTAAACAAATTTTCCTAATCTTTCTGTTCAAGCGCCATCTAC | 1 RPM ratio (pull-down/input)
